The results in this text go back to PMC6919601, “Identification of Plasmodium dipeptidyl aminopeptidase allosteric inhibitors by high throughput screening” (PLoS ONE, 2019).

In all, about 110,000 compounds went through this assay and about 230 (0.21%) showed an effect of 50% or more. The list shows a part of the results.
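Further: 30 min substrate incubation versus DMSO and 10 µM JCP410 controls.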

The target of this assay is DPAP1 (Plasmodium falciparum, UniProt Q8IIJ9). In words: primary screen, percent inhibition; read by cleavage of a fluorogenic dipeptide substrate; higher = more effect of the substance. Details: species or system P. falciparum D10 trophozoite lysates; single well.
DPAP1, sequence (Q8IIJ9 whole entry, looked up): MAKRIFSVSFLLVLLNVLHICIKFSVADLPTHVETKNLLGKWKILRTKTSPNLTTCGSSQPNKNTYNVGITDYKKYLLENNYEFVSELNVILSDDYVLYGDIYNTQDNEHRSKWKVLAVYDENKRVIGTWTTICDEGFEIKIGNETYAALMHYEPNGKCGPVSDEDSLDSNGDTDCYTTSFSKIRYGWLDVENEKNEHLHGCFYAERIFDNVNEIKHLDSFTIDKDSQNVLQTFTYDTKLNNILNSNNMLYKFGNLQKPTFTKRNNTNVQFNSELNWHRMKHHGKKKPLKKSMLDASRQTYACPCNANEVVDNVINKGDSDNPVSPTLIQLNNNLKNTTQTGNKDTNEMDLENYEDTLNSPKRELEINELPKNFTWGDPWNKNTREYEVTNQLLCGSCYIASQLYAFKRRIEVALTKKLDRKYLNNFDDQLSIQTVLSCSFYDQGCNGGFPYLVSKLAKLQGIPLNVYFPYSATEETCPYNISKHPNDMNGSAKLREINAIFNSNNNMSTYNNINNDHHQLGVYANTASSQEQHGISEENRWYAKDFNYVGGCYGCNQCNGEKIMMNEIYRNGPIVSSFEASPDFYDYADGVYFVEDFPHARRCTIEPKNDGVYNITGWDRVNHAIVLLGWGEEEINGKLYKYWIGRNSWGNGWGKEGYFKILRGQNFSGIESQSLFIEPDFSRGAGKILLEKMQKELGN
With `COc1ccccc1N1CCN(C(=O)CN2C(=O)c3ccccc3S2(=O)=O)CC1`, the “% Inhibition @ 10 uM” value is -3.04%.

For `COc1cc(C(=O)N2CCN(Cc3cccc(Oc4ccccc4)c3)CC2)cc(OC)c1OC`, the “% Inhibition @ 10 uM” value worked out at 5.41%.

For the molecule `COc1cccc(N(CC(=O)Nc2ccc(C)cc2C)S(=O)(=O)c2ccccc2)c1`, the “% Inhibition @ 10 uM” value came out at 0.324%.

As for `O=C(CCc1nnc2n(Cc3ccccc3Cl)c(=O)c3ccccc3n12)NC1CCCCC1`, the “% Inhibition @ 10 uM” value worked out at 2.6%.

In the case of `C=CCc1cccc2cc(C(=O)N3CCN(C)CC3)c(=O)oc12`, the “% Inhibition @ 10 uM” value is given as -4.98%.

For `CN(C)S(=O)(=O)c1ccc(N2CCN(CCO)CC2)nc1`, the “% Inhibition @ 10 uM” value was -1.51%.

For the molecule `COc1cc2c(cc1OC)CN(C(=O)COc1ccc(Cl)cc1Cl)CC2`, the “% Inhibition @ 10 uM” value is reported as -2.85%.

`COc1ccccc1CN1C(=O)c2ccccc2C1C(=O)NC1CCC(C)CC1` (centres unmarked): the “% Inhibition @ 10 uM” value stood at 5.89%.

`COc1ccc(-c2noc(N(C)CC(=O)Nc3cccc(C)n3)n2)cc1`: the “% Inhibition @ 10 uM” value was found to be 2.76%.

On to `O=c1c(CN2CCN(c3ccccc3F)CC2)coc2ccccc12`, for which the “% Inhibition @ 10 uM” value is on record as -4.61%.

Take `COc1ccc(OC)c(NC(=O)c2cccs2)c1`: the “% Inhibition @ 10 uM” value is 2.22%.

For the molecule `Cc1ccsc1CCNC(=O)CCc1c(C)nc2ncnn2c1O`, the “% Inhibition @ 10 uM” value is -1.3%.

As to `CCn1cc(Cl)c(C(=O)NCc2cc3cc(Cl)ccc3[nH]2)n1`, the “% Inhibition @ 10 uM” value is given as -0.68%.

Turning to `CCN(CC)c1ccc2nnc(CCC(=O)NCc3ccco3)n2n1`, the “% Inhibition @ 10 uM” value is -5.85%.

Take `Clc1ccccc1Cn1nnc2c(N3CCCC3)ncnc21`: the “% Inhibition @ 10 uM” value is -2.19%.

Consider `Cc1ccc(S(=O)(=O)N(CC(=O)N2CCN(C)CC2)c2ccc(C)c(C)c2)cc1`, for which the “% Inhibition @ 10 uM” value is on record as -5.57%.

In the case of `COc1cccc2nc3ccccc3c(O)c12`, the “% Inhibition @ 10 uM” value is listed as -2.15%.

Turning to `COc1ccc(N(CC(=O)Nc2ccccc2C)S(=O)(=O)c2ccc(C)cc2)c(OC)c1`, the “% Inhibition @ 10 uM” value was -10.8%.

On to `O=C(Nc1cc(Cl)ccc1O)c1cc2nc(C(F)F)cc(C(F)F)n2n1`, for which the “% Inhibition @ 10 uM” value is listed as -0.116%.

`Cc1ccccc1-c1nc(CN2CCC(C(=O)N3CCN(c4ccccn4)CC3)CC2)c(C)o1`: the “% Inhibition @ 10 uM” value is reported as -2.85%.

For `CC1CCC(NC(=O)Cn2ncc3c4ccccc4n(Cc4ccccc4)c3c2=O)CC1` (centres unmarked), the “% Inhibition @ 10 uM” value is listed as -3.35%.

Consider `COc1ccc(Br)cc1CNC(=O)CN1C(=O)CSc2nc(C)cc(C)c21`, for which the “% Inhibition @ 10 uM” value was found to be 2.65%.

As for `O=C(O)c1cnc2ccc(S(=O)(=O)N3CC4CC(C3)c3cccc(=O)n3C4)cc2c1O` (centres unmarked), the “% Inhibition @ 10 uM” value is given as -3.21%.

Turning to `NC(=O)c1c(NC(=O)C2CCCN(C(=O)Cc3ccccc3F)C2)sc2c1CCCC2` (centres unmarked), the “% Inhibition @ 10 uM” value came out at 5.43%.

As for `CC(C)C[C@H](NC(=O)N1CCN(c2cccc(Cl)c2)CC1)C(=O)NCC#N`, the “% Inhibition @ 10 uM” value is -6.98%.

As to `COc1cc(C2C3=C(CC(C)(C)CC3=O)OC3=C2C(=O)CC(C)(C)C3)cc(Cl)c1O`, the “% Inhibition @ 10 uM” value is -3.72%.

Regarding `CCN(CC)CCN1C(=O)C(O)=C(C(=O)c2ccc(F)cc2)C1c1cccc(Br)c1` (centres unmarked), the “% Inhibition @ 10 uM” value was -1.06%.

In the case of `CCc1ccc(CNC(=O)C(C)n2ccc3cc(S(=O)(=O)N4CCCC4)ccc32)cc1` (centres unmarked), the “% Inhibition @ 10 uM” value was determined as 4.81%.

On to `CCOc1ccc(C(=O)C2=C(O)C(=O)N(CC3CCCO3)C2c2ccc(Br)cc2)cc1` (centres unmarked), for which the “% Inhibition @ 10 uM” value is -2.46%.

For `O=C(Nc1nc(COc2ccccc2)cs1)c1ccccc1F`, the “% Inhibition @ 10 uM” value is reported as -1.65%.

Consider `Oc1cc(-c2ccccc2)nn1-c1nc2ccccc2[nH]1`, for which the “% Inhibition @ 10 uM” value was 2.24%.

Take `COc1ccc(NC(=O)Cc2ccc(OC)c(OC)c2)c(OC)c1`: the “% Inhibition @ 10 uM” value is -5.13%.

Consider `Cc1ccc2c(c1)-c1c(cnn1CC(=O)N1C(C)CCCC1C)CO2` (centres unmarked), for which the “% Inhibition @ 10 uM” value is on record as -4.71%.

Take `COc1cc(C2c3c(oc4ccc(Br)cc4c3=O)C(=O)N2Cc2ccccc2)ccc1O` (centres unmarked): the “% Inhibition @ 10 uM” value was 6.7%.

On to `CN1CCN(C(=O)c2ccc3c(c2)C2C4CCC(C4)C2C(c2ccccc2)N3)CC1` (centres unmarked), for which the “% Inhibition @ 10 uM” value came to 0.823%.

Regarding `O=C(CCCN1C(=O)c2ccccc2C1=O)NCc1nc(-c2ccc(Cl)cc2)no1`, the “% Inhibition @ 10 uM” value is listed as 0.486%.

Consider `Cc1ccc(CN2CCN(c3ccc(Cl)cc3)CC2)c(C)c1`, for which the “% Inhibition @ 10 uM” value is -5.41%.

Consider `CC(CCc1ccccc1)NC(=O)c1cc(-c2ccncc2)nc2ccccc12` (centres unmarked), for which the “% Inhibition @ 10 uM” value was -4.06%.

Consider `CCCOc1ccc(CNC(=O)c2ccc(CN3CC(=O)N4CCCCC4C3=O)cc2)cc1` (centres unmarked), for which the “% Inhibition @ 10 uM” value is listed as 1.97%.

On to `N#Cc1ccc(Oc2cccc(N)c2)cc1Oc1cccc(N)c1`, for which the “% Inhibition @ 10 uM” value is on record as -5.7%.

On to `Cc1ccsc1/C=C/C(=O)NCC(=O)N1CCC(N(C)C2CCCCC2C)CC1` (centres unmarked), for which the “% Inhibition @ 10 uM” value is -0.971%.

As for `CC(Oc1ccc(Cl)cc1Cl)C(=O)Nc1cccnc1Cl` (centres unmarked), the “% Inhibition @ 10 uM” value was -0.48%.

Regarding `CCN1CCCC1CNc1nc2ccc(Cl)cc2n2cnnc12` (centres unmarked), the “% Inhibition @ 10 uM” value was 5.84%.

Turning to `COc1ccc(/C=C/C(=O)OCCN(C)Cc2ccccc2)cc1`, the “% Inhibition @ 10 uM” value is recorded as -10.8%.

With `CC(=O)c1c(C(C)=O)c(C)n(Cc2ccccc2)c1C`, the “% Inhibition @ 10 uM” value was 3.18%.

For the molecule `O=C(NCc1cccnc1)C1CC(=O)N(C2CCCCC2)C1` (centres unmarked), the “% Inhibition @ 10 uM” value came out at 0.302%.

Consider `COc1ccccc1Nc1nc(-c2cccc(N3C(=O)c4ccccc4C3=O)c2)cs1`, for which the “% Inhibition @ 10 uM” value is on record as 1.41%.

On to `c1ccc2c(CNCCc3c[nH]c4ccccc34)cccc2c1`, for which the “% Inhibition @ 10 uM” value amounted to 0.673%.

In the case of `COc1cccc(Sc2ccccc2CN(C)C)c1`, the “% Inhibition @ 10 uM” value is on record as -2.29%.

As for `COc1ccc(NC(=O)/C(=C\c2ccccc2OC)NC(=O)c2cccc(C)c2)cc1`, the “% Inhibition @ 10 uM” value amounted to 4.33%.
